Results on 2 molecules are retold here after US20260274933A1 (Innovent, published 2026).

Where two headings read alike, the source gives them in different places.

Assay [1] deals with T1, hAng2-biotin (R&D, Catalog No. BT623B/CF) (human, UniProt O15123 68-496, limits assumed, biotinylated).
T1 construct: also called Ang2-Bio (R&D, Catalog No. BT623B/CF); Recombinant Biotinylated hAngiopoietin-2 protein (R&D)
T1 sequence (looked up): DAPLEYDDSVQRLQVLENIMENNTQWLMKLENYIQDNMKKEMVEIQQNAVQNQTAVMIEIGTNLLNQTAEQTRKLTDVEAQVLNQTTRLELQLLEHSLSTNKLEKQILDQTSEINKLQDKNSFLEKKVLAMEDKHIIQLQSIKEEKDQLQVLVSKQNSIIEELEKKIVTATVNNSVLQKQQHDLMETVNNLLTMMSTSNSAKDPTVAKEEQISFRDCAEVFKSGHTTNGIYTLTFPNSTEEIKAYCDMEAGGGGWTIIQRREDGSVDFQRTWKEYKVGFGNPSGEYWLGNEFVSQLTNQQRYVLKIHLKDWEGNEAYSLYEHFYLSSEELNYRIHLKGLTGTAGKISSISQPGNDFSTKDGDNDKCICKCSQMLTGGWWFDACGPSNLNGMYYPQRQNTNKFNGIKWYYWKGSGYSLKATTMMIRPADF
Put plainly: blocking ELISA: hTie2 coated, binding of biotinylated hAng2 blocked; unit from the axis. As for the experimental part: (§1) The antigen-antibody mixture obtained as described above was incubated in the microplate for 90 min and washed three times with PBS, and the supernatant was discarded. 100 μL of Avidin-HRP (Invitrogen) diluted in a 1:10000 ratio was added to each well, incubated at room temperature for 30 min, and washed six times with PBS. A TMB chromogenic solution (solarbio) was added to the plate at 100 μL/well for color development for 1 min, and the reaction was stopped by adding a stop solution (Solarbio) at 100 μL/well.
On the technique in general: In an ELISA, binding on a coated surface is turned into a signal by an enzyme label.

The target in assay [2] is T1, hAng2-biotin (R&D, Catalog No. …). The description is as above. The procedure:
as §1
The source holds these as a separate data set.

The target of assay [3] is T2, hAng2-Fc (Beijing Sino Biological, Catalog No. 10691-H02H) (human, UniProt O15123 19-496).
T2 construct: Bought fusion protein; also called human Ang2-hFc; recombinant hAng2-Fc protein; not shown: human Fc of the bought fusion protein
T2 sequence (looked up): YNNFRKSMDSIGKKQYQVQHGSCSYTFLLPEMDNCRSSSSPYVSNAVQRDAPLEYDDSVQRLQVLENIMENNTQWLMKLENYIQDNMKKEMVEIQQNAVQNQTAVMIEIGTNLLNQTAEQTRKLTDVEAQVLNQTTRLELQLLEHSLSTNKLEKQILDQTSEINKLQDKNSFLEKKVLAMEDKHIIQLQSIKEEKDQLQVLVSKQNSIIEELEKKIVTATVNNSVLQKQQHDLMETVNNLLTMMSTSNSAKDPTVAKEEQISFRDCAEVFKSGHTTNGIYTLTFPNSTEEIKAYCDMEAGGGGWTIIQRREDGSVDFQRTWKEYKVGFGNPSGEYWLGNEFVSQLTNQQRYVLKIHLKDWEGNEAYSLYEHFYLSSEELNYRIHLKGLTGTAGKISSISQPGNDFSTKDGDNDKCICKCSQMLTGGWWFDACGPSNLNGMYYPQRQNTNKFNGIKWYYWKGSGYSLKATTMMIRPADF
In words: flow cytometry blocking: binding of hAng2-Fc to Tie2 on 293-Tie2 cells blocked, Mean PE-A; unit from the axis. As for the experimental part:
(§2) The cells were centrifuged at 300 g for 5 min. The supernatant was discarded. Then the cells were resuspended in an antigen-antibody mixture. The mixture was incubated on ice for 30 min. PBS was added at 100 μL/well. After centrifugation at 300 g for 5 min, the mixture was washed once with PBS. 100 μL of goat anti-human IgG-PE (SouthernBiotech) diluted in a 1:200 ratio was added to each well. After a 20-min ice bath, PBS was added at 100 μL/well. The mixture was centrifuged at 300 g for 5 min, prior to one wash with PBS. The cells were resuspended with 100 μL of PBS. The cell fluorescence signal values were measured by a flow cytometer (BD Biosciences). According to MFI, the concentration-dependent curve was fitted with GraphPad.
Background: In flow cytometry, cells or beads pass a laser one at a time.

Assay [4] has as its target T2, hAng2-Fc (Beijing Sino Biological, …). In words: flow cytometry blocking: binding of hAng2-Fc to Tie2 on 293-Tie2 cells blocked, Mean-PE-A; unit from the axis. The procedure:
as §2

B1: Positive control antibody BI836880 (VEGFA/HSA/Ang2) (bispecific antibody)
chain: DVQLVESGGGLVQPGGSLRLSCAASGRTFSSYSMGWFRQAPGKEREFVVAISKGGYKYDAVSLEGRFTISRDNAKNTVYLQINSLRPEDTAVYYCASSRAYGSSRLRLADTYEYWGQGTLVTVSSGGGGSGGGS[letters of about 120 residues omitted]GGGGSGGGSEVQLVESGGGLVQPGGSLRLSCAVSGITLDDYAIGWFRQAPGKEREGVSAIRSSGGSTYYADSVKGRFTISSDNSKNTVYLQMNSLRPEDTAVYYCAAVPAGRLRYGEQWYPIYEYDAWGQGTLVTVSS
notes: also called B1836880
Turning to B1, the IC50 (usually the concentration needed to halve the response being measured) amounted to 22.2 nM in assay [1], 16.9 nM in assay [2], 1.23 nM in assay [3] and 0.742 nM in assay [4].

B2: IEX04-010 (bispecific antibody)
chain: SDTGRPFVEMYSEIPEIIHMTEGRELVIPCRVTSPNITVTLKKFPLDTLIPDGKRIIWDSRKGFIISNATYKEIGLLTCEATVNGHLYKTNYLTHRQTNTIIDVVLSPSHGIELSVGEKLVLNCTARTELNVGIDFNWEYPSSKHQHKKLVNRDLKTQSGSEMKKFLSTLTIDGVTRSDQGLYTCAASSGLMTKKNSTFVRVHEK[letters of human IgG1 Fc omitted]GGGSGGGGSGGGGSEVQLLESGGGLVQPGGSLRLSCAASGFALDYYAIGWFRQAPGKGLEGVSCISSGEGSTYYADSVKGRFTISRDNSKNTVYLQMNSLRAEDTAVYYCATDSRGDDVACEGLRRNEYDYWGQGTLVTVSS
notes: Aflibercept-type VEGFR ECD-Fc fused to the anti-Ang2 VHH; also called VEGFR extracellular domain + Fc + linker + LA24C11.10
In the case of B2, the values for the half-inhibitory concentration (IC50) in assay [1] and in assay [3] were 3.68 nM and 0.427 nM, respectively.
